This passage reports AUC and IC50 results from the supplement of paper PMC4967469.

A lower IC50 marks a more sensitive line; a limit (>, <) means that the fit lies beyond the doses tested. AUC, from the same fit, is the share of area under the viability curve across the 256-fold dose range: 1 means no effect, lower means more sensitive. For part of these data: Where the top dose is marked as inferred, it is not printed in the source and was worked back from the curve model. For part of these data: Drugs with an entry number were screened twice under separate entries, and the two screens often disagree.

The term IC50 denotes the point on the concentration scale where inhibition reaches its midpoint.

Test in all cases: Viability of human cancer cell lines after 72 h of drug (GDSC screen)
Compound in one experiment: CCc1nc(N)nc(N)c1-c1ccc(Cl)cc1 [Pyrimethamine]
The following applies: top dose 20 µM; top dose inferred. On the procedure: (§1)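 Human cancer cell lines in 384-well plates, medium with 10% serum, drug for 72 h over a 256-fold dose range (nine 2-fold or five 4-fold steps up to the top dose). Adherent lines were fixed and stained with the nucleic acid dye Syto60, suspension lines read with resazurin; signal relative to control wells, capped at 0 and 100%. One two-parameter sigmoid per drug and line, fitted in a mixed model over all curves with the slope shared within a line.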

Compound in the next experiment: C[C@@H](N)c1ccc(C(=O)Nc2ccnc3[nH]ccc23)cc1 [Y-39983]
The following applies: top dose 20 µM; top dose inferred. The method, then:
as §1

Compound in the next experiment: CC(C)CC(=O)Nc1n[nH]c2c1CN(C(=O)C1CCN(C)CC1)C2(C)C [PHA-793887]
The conditions noted are these: top dose 10.24 µM. The method, then:
as §1

Compound in a further experiment: C/C(=C\c1csc(C)n1)[C@@H]1C[C@@H]2O[C@]2(C)CCC[C@H](C)[C@H](O)[C@@H](C)C(=O)C(C)(C)[C@@H](O)CC(=O)O1 [Epothilone B]
The conditions noted are these: top dose 0.032 µM; top dose inferred. On the procedure: as §1

Compound in the next experiment: NC(=O)Nc1sc(-c2ccc(F)cc2)cc1C(N)=O [TPCA-1]
The conditions noted are these: top dose 20 µM. The method, then: as §1

Compound in another experiment: CN1CCN(CCOc2cc(OC3CCOCC3)c3c(Nc4c(Cl)ccc5c4OCO5)ncnc3c2)CC1 [AZD-0530]
The following applies: top dose 2 µM. On the procedure: as §1

Compound in another experiment: CCCS(=O)(=O)Nc1ccc(F)c(C(=O)c2c[nH]c3ncc(Cl)cc23)c1F [PLX4720]
The following applies: top dose 10 µM. On the procedure: as §1

Compound in another experiment: Cc1ccc(NC(=O)c2ccc(CN3CCN(C)CC3)cc2)cc1Nc1nccc(-c2cccnc2)n1 [Imatinib]
The following applies: top dose 2 µM. On the procedure: as §1

[1] abbreviates: screen: GDSC drug entry 1371, top dose inferred.

DB (B-cell lymphoma, suspension): the AUC with Pyrimethamine came out at 0.862; with Y-39983, 0.882; in the experiment with PHA-793887, 0.677; with Epothilone B, 0.653; in the experiment with TPCA-1, 0.665; with AZD-0530 it was 0.977. Also, the AUC came out at 0.905 with PLX4720 (screen: GDSC drug entry 1036), 0.881 with PLX4720 (setting [1]) and 0.98 with Imatinib. The IC50 with Pyrimethamine is > 20 µM; with Y-39983, > 20 µM; with PHA-793887, 2.13 µM; with Epothilone B, 0.00563 µM; with TPCA-1, 3.83 µM; in the experiment with AZD-0530, > 2 µM. Besides, the IC50 with PLX4720 (screen: GDSC drug entry 1036) was > 10 µM; with PLX4720 (setting [1]), > 10 µM; with Imatinib it was > 2 µM.

As for EB2 (Burkitt lymphoma, suspension), the AUC worked out at 0.98 with Pyrimethamine; 0.826 with Y-39983; 0.388 with PHA-793887; 0.583 with Epothilone B; 0.305 in the experiment with TPCA-1; 0.987 in the experiment with AZD-0530. The figures for the AUC with PLX4720 (screen: GDSC drug entry 1036), with PLX4720 (setting [1]) and with Imatinib were 0.99, 0.983 and 0.97, respectively. In addition, the IC50 with Pyrimethamine is > 20 µM; in the experiment with Y-39983 it was 10.6 µM; with PHA-793887, 0.325 µM; with Epothilone B, 0.00331 µM; in the experiment with TPCA-1, 0.376 µM; with AZD-0530 it was > 2 µM. Besides, the IC50 is > 10 µM in the experiment with PLX4720 (screen: GDSC drug entry 1036), > 10 µM with PLX4720 (setting [1]) and > 2 µM with Imatinib.

For “EM-2 (chronic myeloid leukaemia, suspension)”, the AUC with Pyrimethamine is 0.776; with Y-39983, 0.823; in the experiment with PHA-793887 it was 0.712; with Epothilone B it was 0.842; with TPCA-1, 0.715; in the experiment with AZD-0530 it was 0.626. In addition, the AUC with PLX4720 (screen: GDSC drug entry 1036) was 0.937; with PLX4720 (setting [1]), 0.952; with Imatinib, 0.468. Moreover, the IC50 in the experiment with Pyrimethamine amounted to 9.08 µM; with Y-39983, 13.8 µM; in the experiment with PHA-793887, 2.77 µM; with Epothilone B it was 0.0268 µM; in the experiment with TPCA-1, 5.55 µM; in the experiment with AZD-0530, 0.292 µM. The figures for the IC50 in the experiment with PLX4720 (screen: GDSC drug entry 1036), in the experiment with PLX4720 (setting [1]) and in the experiment with Imatinib were > 10 µM, > 10 µM and 0.101 µM, respectively.

Regarding ES-2 (ovary, adherent), the AUC with Pyrimethamine stood at 0.722; with Y-39983, 0.93; with PHA-793887 it was 0.929; in the experiment with Epothilone B, 0.92; with TPCA-1 it was 0.784; with AZD-0530, 0.986. Also, the AUC was found to be 0.859 in the experiment with PLX4720 (screen: GDSC drug entry 1036), 0.721 in the experiment with PLX4720 (setting [1]) and 0.99 in the experiment with Imatinib. For the same cell line, the IC50 with Pyrimethamine is 4.85 µM; in the experiment with Y-39983, > 20 µM; in the experiment with PHA-793887, > 10.2 µM; with Epothilone B, > 0.032 µM; with TPCA-1 it was 7.42 µM; with AZD-0530, > 2 µM. The IC50 was 6.71 µM with PLX4720 (screen: GDSC drug entry 1036), 2.41 µM with PLX4720 (setting [1]) and > 2 µM in the experiment with Imatinib.

As to GOTO (neuroblastoma, adherent), the AUC in the experiment with Pyrimethamine is 0.915; with Y-39983, 0.92; in the experiment with PHA-793887 it was 0.856; with Epothilone B, 0.902; with TPCA-1 it was 0.829; in the experiment with AZD-0530 it was 0.948. Besides, the values for the AUC in the experiment with PLX4720 (screen: GDSC drug entry 1036), in the experiment with PLX4720 (setting [1]) and with Imatinib were 0.961, 0.978 and 0.971, respectively. The IC50 was > 20 µM with Pyrimethamine; > 20 µM with Y-39983; 10.1 µM with PHA-793887; > 0.032 µM in the experiment with Epothilone B; 14.9 µM in the experiment with TPCA-1; > 2 µM with AZD-0530. For the same cell line, the figures for the IC50 in the experiment with PLX4720 (screen: GDSC drug entry 1036), with PLX4720 (setting [1]) and with Imatinib were > 10 µM, > 10 µM and > 2 µM, respectively.

Take GT3TKB (stomach, adherent): the AUC was determined as 0.99 with Pyrimethamine; 0.983 in the experiment with Y-39983; 0.955 with PHA-793887; 0.302 in the experiment with Epothilone B; 0.971 with TPCA-1; 0.989 in the experiment with AZD-0530. The AUC with PLX4720 (screen: GDSC drug entry 1036) is 0.989; with PLX4720 (setting [1]), 0.825; in the experiment with Imatinib, 0.99. The IC50 with Pyrimethamine was > 20 µM; with Y-39983, > 20 µM; with PHA-793887, > 10.2 µM; with Epothilone B, 0.000603 µM; in the experiment with TPCA-1, > 20 µM; in the experiment with AZD-0530 it was > 2 µM. The figures for the IC50 with PLX4720 (screen: GDSC drug entry 1036), with PLX4720 (setting [1]) and with Imatinib were > 10 µM, 5.07 µM and > 2 µM, respectively.

On to HA7-RCC (kidney, adherent), for which the AUC with Pyrimethamine came out at 0.961; with Y-39983 it was 0.958; with PHA-793887, 0.961; in the experiment with Epothilone B, 0.341; with TPCA-1, 0.736; in the experiment with AZD-0530 it was 0.836. The AUC turned out to be 0.977 with PLX4720 (screen: GDSC drug entry 1036), 0.972 with PLX4720 (setting [1]) and 0.984 with Imatinib. The IC50 was > 20 µM with Pyrimethamine; > 20 µM with Y-39983; > 10.2 µM with PHA-793887; 0.000688 µM with Epothilone B; 6.4 µM in the experiment with TPCA-1; 1.53 µM with AZD-0530. The IC50 in the experiment with PLX4720 (screen: GDSC drug entry 1036) was > 10 µM; in the experiment with PLX4720 (setting [1]), > 10 µM; in the experiment with Imatinib, > 2 µM.
